Measured values: PubChem BioAssay AID504832 (National Center for Advancing Translational Sciences (NCATS), 2011)
In all, about 310,000 compounds went through this assay and about 18,000 (5.8%) were called active. Inconclusive means that the source gave no clear call. Such entries were picked first, then a sample of the others. Calls come from the whole dose curve; as a rule, active = well fitted inhibition curve with a large enough effect; inconclusive = small, poorly fitted or top-dose-only effect, or another doubt; inactive = no such curve, though single readings can be large or run the other way. No potency is given beside an inconclusive call; the fits are too rough.
% is set by controls: 0 for no effect and ±100 for the full control effect; potency is the fitted concentration of half-maximal effect; tags give direction and shape of the fitted curve.

Experiment: Primary qHTS for delayed death inhibitors of the malarial parasite plastid, 48 hour incubation
Conditions: P. falciparum luciferase growth in erythrocytes; series mostly up to 28.7 µM; activity change, negative = inhibition: at the top concentration
Method in brief: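 Here the parasites carry a stable luciferase gene and grow inside erythrocytes in Albumax-based RPMI medium with compound for one erythrocytic cycle. Activity is scored as loss of luminescent signal.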
For CCN(CC)S(=O)(=O)c1cc(NC(=O)c2n[nH]c(=O)c3ccccc23)ccc1C, the “activity change, negative = inhibition” value was inactive: -7.52%. For CCOC(=O)c1sc(N)c(C(=O)Nc2ccccc2OC)c1C, the “activity change, negative = inhibition” value was inactive: -4.52%. In the case of CC1=C(C)/C(=N\OS(=O)(=O)c2ccc(C)cc2)C=CC1=O, the Potency is reported as inconclusive [inhibitor, single point]. For COc1ccc(NC2c3ccccc3C(=O)N2c2cccnc2)cc1Cl (stereo not given), the Potency was inconclusive [inhibitor, single point]. In the case of COc1ccccc1NC(=O)Cc1csc(NC(=S)Nc2ccc(C)cc2)n1, the Potency is reported as inconclusive [inhibitor, single point]. In the case of COCCCN1CN(S(=O)(=O)c2ccc(C)cc2C)c2nc3ccccc3nc21, the Potency is reported as inconclusive [inhibitor, partial curve, poor fit]. With CCc1ccc(NC(=O)c2ccc(F)c(S(=O)(=O)NCC3COc4ccccc4O3)c2)cc1 (stereo not given) the Potency was inconclusive [inhibitor, single point]. In the case of CCCCN(CC)C(=O)c1cc2c(=O)[nH]c3ccc(C)cc3c2s1, the Potency is reported as inconclusive [inhibitor, single point]. In the case of Nc1nnc(Cc2c[nH]c3ccccc23)s1, the Potency is reported as inconclusive [inhibitor, single point]. With CCn1cc(C(=O)NCC2CCCO2)c(=O)c2cc(S(=O)(=O)N(C)C3CCCCC3)ccc21 (stereo not given) the Potency was inconclusive [inhibitor, single point]. With CC(C)c1ccc(NC(=O)c2cc([N+](=O)[O-])ccc2N2CCOCC2)cc1 the Potency was inconclusive [inhibitor, single point]. With CCOc1ccc(S(=O)(=O)Nc2cccc(C(=O)NCC(C)(C)N3CCOCC3)c2)cc1 the Potency was inconclusive [inhibitor, single point]. For Cc1ccc(NCCC(=O)c2ccc(Br)cc2)cc1, the “activity change, negative = inhibition” value was inactive: 0.572%. In the case of COc1cccc(-n2c(SCC(=O)Nc3nccs3)nnc2-c2ccoc2C)c1, the Potency is reported as active: 8.28 µM. For COc1ccccc1-c1coc2c(CN3CCCCC3C)c(O)ccc2c1=O (stereo not given), the Potency was inconclusive [inhibitor, full curve, poor fit]. With O=C(NCC(c1cccs1)N1CCOCC1)c1ccc(OCc2ccccc2)cc1 (stereo not given) the Potency was inconclusive [inhibitor, single point]. In the case of COc1cccc(NC(=O)CSc2nc3c(c(=O)n2C)SC(C)C3)c1 (stereo not given), the Potency is reported as active: 11.7 µM. In the case of CCc1ccc(OCCSc2nc3ccccc3n2CC(=O)O)cc1, the “activity change, negative = inhibition” value is reported as inactive: -18.3%. With O=C(CSc1nnnn1-c1ccc(O)cc1)Nc1cccc(S(=O)(=O)N2CCCC2)c1 the Potency was inconclusive [inhibitor, single point]. For CCN(Cc1ccccc1)S(=O)(=O)c1ccc(C(=O)Nc2nnc(C)o2)cc1, the Potency was active: 9.28 µM. In the case of CCc1ccc(N(C(=O)c2snc(C(N)=O)c2N)C(C(=O)NC2CCCC2)c2ccncc2)cc1 (stereo not given), the Potency is reported as inconclusive [inhibitor, single point]. With Cc1ccc(Nc2nc3ccccc3c(=O)[nH]2)cc1C the Potency was inconclusive [inhibitor, full curve, poor fit]. With COCCn1c(SCC(=O)c2c(N)n(C3CC3)c(=O)[nH]c2=O)nc2ccccc21 the Potency was inconclusive [inhibitor, single point]. With CC1N=C(c2ccccc2)c2cc(Br)ccc2NC1=O (stereo not given) the “activity change, negative = inhibition” value was inactive: 23%. For COc1c(C)cc(Br)cc1C(=O)Nc1ccc(Cc2ccncc2)cc1, the Potency was inconclusive [inhibitor, full curve, poor fit]. In the case of COC(=O)c1c(NC(=O)c2ccccc2OC)sc(C(=O)N2CCOCC2)c1C, the Potency is reported as inconclusive [inhibitor, single point]. In the case of CCCC(C)C1(CC)C(=O)NC(=Nc2ccc(F)cc2)NC1=O (stereo not given), the Potency is reported as inconclusive [inhibitor, single point]. For O=C(c1ccc(Cl)c(S(=O)(=O)N2CCCCC2)c1)N1CCN(Cc2ccccc2)CC1, the “activity change, negative = inhibition” value was inactive: 18.5%. With CCOc1cc(/C=C(/C#N)c2nc3ccccc3[nH]2)ccc1OCc1ccc(C(=O)O)o1 the Potency was inconclusive [inhibitor, full curve, poor fit]. In the case of Cc1cc2ccccc2n1CCNCc1c(C(=O)N2CCOCC2)nc2ccccn12, the Potency is reported as inconclusive [inhibitor, single point]. With CC(C)(C)C1=CC(=O)C(=O)C(C(C)(C)C)=C1 the “activity change, negative = inhibition” value was inactive: -20.5%. With Cc1ccc(C(=O)c2sc(Nc3ccccc3)c(C#N)c2N)cc1 the Potency was inconclusive [inhibitor, partial curve, poor fit]. For CSc1ccc(S(=O)(=O)N2CCC(C(=O)N3CCc4ccccc4C3)CC2)cc1, the Potency was inconclusive [inhibitor, partial curve]. With COc1ccccc1N1CCN(CCCNC(=O)Cn2ncc3c([nH]c4ccccc43)c2=O)CC1 the Potency was inconclusive [inhibitor, single point]. With Cc1cc(NCC(c2ccccc2)c2ccccc2)n2ncnc2n1 the Potency was inconclusive [inhibitor, single point]. For Cc1ccc(S(=O)(=O)Nc2cc(C)c(O)c(S(=O)(=O)c3ccc(C)cc3)c2)cc1, the Potency was inconclusive [inhibitor, full curve, poor fit]. With CCN(CC)S(=O)(=O)c1cccc(C(=O)NC(C(=O)NC2=NCCS2)C(C)C)c1 (stereo not given) the Potency was inconclusive [inhibitor, single point]. For Cc1ccc(Nc2c([N+](=O)[O-])c(=O)oc3ccccc23)cc1C, the Potency was inconclusive [inhibitor, single point]. With C=CCn1c(SCc2c(C)noc2C)nnc1C1COc2ccccc2O1 (stereo not given) the Potency was inconclusive [inhibitor, single point]. In the case of Cc1ccc(C(=O)Nc2nc(-c3ccccn3)cs2)o1, the Potency is reported as active: 4.15 µM. In the case of Cc1nc(SCC(=O)N2CCOCC2)c2c(=O)n(C)c(=O)n(C)c2n1, the Potency is reported as inconclusive [inhibitor, single point]. With O=C(CCNC(=O)C1CCN(S(=O)(=O)c2ccccc2)CC1)NCc1ccc(Cl)cc1Cl the “activity change, negative = inhibition” value was inactive: 16%. In the case of Cc1ccc(C(C[N+](=O)[O-])n2nc(C)cc2C)cc1 (stereo not given), the Potency is reported as inconclusive [inhibitor, single point]. With CN(CCOc1ccc(-c2ccn(S(=O)(=O)c3c(Cl)cccc3Cl)n2)cc1)c1ccccn1 the Potency was inconclusive [inhibitor, single point]. With Cc1ccc(NC(=O)CSCC(=O)Nc2sccc2C#N)cc1 the Potency was inconclusive [inhibitor, partial curve]. For CC(C)(C)OC(=O)N1CCN(C(=O)c2ncn(Cc3ccccc3)c2C(=O)N2CCN(C(=O)OC(C)(C)C)CC2)CC1, the Potency was inconclusive [inhibitor, full curve]. For Cc1cc(N2CC(C(=O)Nc3nccs3)CC2=O)ccc1C(C)C (stereo not given), the Potency was inconclusive [inhibitor, single point]. For Cc1cc(N2CCN(c3ccccn3)CC2)n2cc(-c3ccccc3)nc2n1, the Potency was active: 13.1 µM. In the case of CCCCOc1ccc(C(=O)N2CCN(c3ccc(N4CCOCC4)nn3)CC2)cc1, the Potency is reported as inconclusive [inhibitor, partial curve, poor fit]. In the case of CCOc1ccc(S(=O)(=O)N2CCCCC2)cc1NC(=O)CCc1ccc(OC)cc1, the Potency is reported as active: 13.1 µM. In the case of Cc1ccc(/C=N/NC(=S)NC2CCS(=O)(=O)C2)cc1 (stereo not given), the Potency is reported as inconclusive [inhibitor, partial curve]. For O=C(Nc1ccccc1C(=O)O)c1ccc(CN2C(=O)c3ccccc3C2=O)cc1, the “activity change, negative = inhibition” value was inactive: 1.99%. With Cc1nc2cc(NC(=O)c3ccc(Br)s3)ccc2s1 the “activity change, negative = inhibition” value was inactive: 212%. With COc1ccc(NC(=O)N2CCN(c3nc(-c4cccc(OC)c4)cs3)CC2)cc1 the Potency was active: 10.4 µM. With CNC(=O)c1ccccc1S(=O)(=O)c1ccccc1C#N the Potency was inconclusive [inhibitor, partial curve, poor fit]. For Cc1cccc([C@@H]2[C@@H]3C(=O)N(Cc4ccccc4)C(=O)[C@@H]3[C@]3(C)C(=O)N(c4ccc(Br)cc4)C(=O)N23)c1, the Potency was inconclusive [inhibitor, single point]. With COc1ccc(NC(=O)CSc2ccc(-c3sc(C)nc3C)nn2)cc1OC the Potency was inconclusive [inhibitor, partial curve, poor fit]. With COc1cccc(/C=C2\SC(=O)N(CCC(=O)NC3CCS(=O)(=O)C3)C2=O)c1 (stereo not given) the “activity change, negative = inhibition” value was inactive: -3.03%. For COc1ccc(NC(=O)c2sccc2SCc2cccc(C(F)(F)F)c2)cc1, the Potency was inconclusive [inhibitor, single point]. In the case of CCCCn1c(N)c(N(CCC(C)C)C(=O)c2oc3ccc(OCC)cc3c2C)c(=O)[nH]c1=O, the Potency is reported as inconclusive [inhibitor, single point]. For O=C(CN1CCN(S(=O)(=O)c2ccccc2F)CC1)NCC1(N2CCOCC2)CCCCC1, the Potency was inconclusive [inhibitor, single point]. In the case of CC(C)(C)c1cc(C(=O)NNC(=O)Nc2ccccc2)n(Cc2ccccc2)n1, the Potency is reported as active: 5.22 µM. For Cc1cc(C)c2oc(-c3ccc(Cl)c(NC(=O)c4ccc(C#N)cc4F)c3)nc2c1, the Potency was inconclusive [inhibitor, single point]. For O=C(OC(c1ccc(NS(=O)(=O)c2ccccc2)cc1)(C(F)(F)F)C(F)(F)F)c1ccccc1, the Potency was inconclusive [inhibitor, single point]. For CSc1nnc(-c2cc3ccccc3cc2O)n1C, the Potency was active: 2.08 µM.
